Sequences with one replicate were seen in a single cluster, so their values are uncertain.

120 sequences from the supplement of paper PMC10126150 can be followed below.
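Also: ATP exposure 15 min at 22 °C before imaging.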

This series concerns ATP. Nature of the series: switch fluorescence ratio, 500 uM ATP over buffer (Cy3 cluster intensity, sum of 5 cycles each) (fold (ratio)); higher = stronger signal-on switching upon ATP binding; sequences stand for … in TCGTCGGCAGCGTCAGATGTGTATAAGAGACAGTTTTTTTTTTTTTTTTTTTTTTTTT…TC. Particulars: aptamer strand: ATP DNA aptamer (quencher-CACCTGGGGGAGTATTGCGGAGGAAGG + anchor), 100 nM annealed; ATP concentration: 500 uM; one replicate. In a few lines: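 The quencher-labelled ATP aptamer, at 100 nM, was annealed to Cy3-labelled switching-strand clusters on a modified Illumina MiSeq flow-cell. The clusters were imaged in selection buffer, then after 15 min with 500 uM ATP at 22 °C, and this buffer/ATP cycle ran five times with NaOH stripping and re-annealing between runs. Per-cluster fluorescence ratios, summed target-cycle over summed buffer-cycle Cy3 intensity, were averaged per switch-domain sequence. Clusters outside 100-1000 RFU were excluded.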
Consider AAGCATCAAT, for which the switch fluorescence ratio was found to be 0.95. Under TACTGTCTCC stands 1.1; under CGAAGGGGTC, 1.03. CGAGTTGTCC: the switch fluorescence ratio came to 0.995. TCATGGGGAT: the switch fluorescence ratio turned out to be 0.991. For the sequence CATTATCTGA, the switch fluorescence ratio was found to be 1.02.

Regarding AGAGATATCA, the switch fluorescence ratio was 1.03. Turning to GGAGTAGCAC, the switch fluorescence ratio was 1.14. With GTCATAGGCC the figure was 0.995. With AATACCAAGC the figure was 1.06. As for CATTAGCAGC, the switch fluorescence ratio was found to be 1.16. On to ATATTTTGAT, for which the switch fluorescence ratio is 1.01.

Take AGGAGTGAAG: the switch fluorescence ratio was 1.03. With TTCAGACCTC the figure was 1.02; with AGTGACGCCT, 0.994; with CTTTTAAG, 1.03. Turning to ACATGTGTC, the switch fluorescence ratio came to 1.05.

Turning to GAGAGCAATA, the switch fluorescence ratio was 6.08. TTCTCGCCCT: the switch fluorescence ratio amounted to 1.03. Regarding TTGCGCCGGA, the switch fluorescence ratio stood at 0.96. Under CGGATCCTGG stands 1.02; under TCCCCGATGG, 1.3; under AAGTACTGA, 1.27. Under CGTGACTCGT stands 0.994; under TATGCTAATT, 0.987; under TTTTCATGTA, 1.05.

Consider AATGTTTCGT, for which the switch fluorescence ratio was 1. With CGGGTGGATG the figure was 0.961; with TGTGATATAA, 0.978; with TTCCGGACCC, 1.08. With CCGCATAAG the figure was 3.27; with AGGGGGACC, 1.06.

CAAATGAAAA: the switch fluorescence ratio was 1.06. As for AGAGTGCGAG, the switch fluorescence ratio came to 0.996. Turning to GGTACTATGA, the switch fluorescence ratio amounted to 1.01. For the sequence TATCAAGGTC, the switch fluorescence ratio was found to be 1.01. With CATTAGAAAT the figure was 0.98. Consider GCTTAACG, for which the switch fluorescence ratio amounted to 0.985. With TCCACTTAGA the figure was 0.988; with GACCAGGGGC, 1.42. Under GGAGTCAAAA stands 1.02; under GGATCTGAAG, 1.06. Consider CCTCAGGTTC, for which the switch fluorescence ratio was determined as 1.95. CAAAACAAGA: the switch fluorescence ratio was found to be 0.945. Under CGGCTTGAGC stands 0.987; under ACGCATATGG, 1.98; under ATGGTCACTC, 1.05.

Regarding GCCATACTGT, the switch fluorescence ratio is 1.09. Under TCGAGATAG stands 1.07; under TCCCCAGTAG, 1.16. For AGAGCCAGAC, the switch fluorescence ratio was found to be 1.07. In the case of TATACGAGCC, the switch fluorescence ratio was 1.51.

Consider GGATACCTGG, for which the switch fluorescence ratio was found to be 1.02. Turning to TCACGCAGTA, the switch fluorescence ratio was found to be 1.08. For the sequence ACATATTCGG, the switch fluorescence ratio came out at 1.02. As for GTTTGTTTGA, the switch fluorescence ratio amounted to 1.01.

As for GGAGTGACGT, the switch fluorescence ratio came out at 1.01. Under AGAGCAACTT stands 1.05; under CCAGGGAGAC, 1.2; under GGTTGCCCAA, 1.18.

As to ACGGGGAGCG, the switch fluorescence ratio was 1.03.

For the sequence TAGGGCGCAC, the switch fluorescence ratio was found to be 1.04. Consider AATAGAATTC, for which the switch fluorescence ratio turned out to be 0.951. Turning to GACGGTGACA, the switch fluorescence ratio came to 1.09. With TTTAAGAA the figure was 0.987; with TAATAACAG, 1.02. With CGAGTAGAAG the figure was 0.96. As to ATGACGTGGC, the switch fluorescence ratio turned out to be 0.952. Regarding CGTAAGTAGC, the switch fluorescence ratio worked out at 1.03.

As to GCTTGGTGGG, the switch fluorescence ratio worked out at 1.01. On to CGGCCACCAA, for which the switch fluorescence ratio is 1.13. With GATTGCAAGA the figure was 1.09; with CCACGAATCA, 1; with CGGACAAGAT, 1.72. On to GCACTAAAG, for which the switch fluorescence ratio was 0.987. On to CTGAAAGCGC, for which the switch fluorescence ratio is 0.988.

Take ATTTCTAAGG: the switch fluorescence ratio worked out at 1.02. With TGAGCGGACT the figure was 1.07; with TTGCTAGTAC, 1.24. Under TTAGGATCAC stands 1.08; under CATGTTATCG, 1.01; under TAGGTACACC, 1.06.

Regarding CAGCGTATGC, the switch fluorescence ratio was 1.06. With GATGGGCTTC the figure was 0.969; with AATAGTAACA, 1.01. Under CAAGGCCAGC stands 1.01; under TTGCGCAGTT, 1.03; under TGTTTTATTC, 1.04. CAAAAAGCTA: the switch fluorescence ratio came to 1.03. On to CGACGAAGTC, for which the switch fluorescence ratio came out at 1.03.

As to CATGGGATTG, the switch fluorescence ratio was found to be 0.966. With ACTTGCGCTG the figure was 1.02. With CTGACGGGGC the figure was 2.23; with GGACCAGTGT, 0.945. With ATCATGGCGT the figure was 1.03; with GCGGGATTCA, 0.996; with TATTGCCTCA, 0.942. On to TGCGCTCCCG, for which the switch fluorescence ratio is 1.06. With TCATTCTACG the figure was 1.06. Under AGGCCCGTGG stands 1.06; under GACGCTGGAG, 1. TTCCTATTCC: the switch fluorescence ratio was 1.15. As for GGTACCCTTA, the switch fluorescence ratio was found to be 1.05. Under TGTTATAAGT stands 1. Turning to CCTGTAATAT, the switch fluorescence ratio was 2.82.

Turning to AGGGTCCGCT, the switch fluorescence ratio amounted to 1.05.

With GTTCTACATT, the switch fluorescence ratio stood at 0.99. With TTTGGCCCTG, the switch fluorescence ratio stood at 0.99. In the case of TGTTATCAGT, the switch fluorescence ratio came to 1. Under CCTAGGTGTT stands 1.99; under TATGCAAG, 1.07; under GTAGTCTGCT, 0.983.

On to ACCACCTGGT, for which the switch fluorescence ratio stood at 1.08. For TTGCACGGGG, the switch fluorescence ratio worked out at 1.03. Under TTCGGGCTTA stands 0.98. Under ATAGACAATA stands 1.08; under GGTGGGGATC, 0.978; under CCACATGAAA, 1.05. In the case of ACGCCAGACA, the switch fluorescence ratio was 1.26.

With TAGACGGCTC, the switch fluorescence ratio was found to be 1.02.
